# Data: PubChem BioAssay AID743279 (National Center for Advancing Translational Sciences (NCATS), 2014)
# In all, about 360,000 compounds went through this assay and about 17,000 (4.7%) were called active. The shares of active, inactive and inconclusive entries below differ from those in the screen. No stated cut-off is given here; in the data, active means activity change below about -50%; inconclusive means mostly about -30% to -49%; inactive means weaker than that.
# Assay: qHTS for Inhibitors of Inflammasome Signaling: IL-1-beta AlphaLISA Primary Screen
# Conditions: THP-1 LPS/ATP IL-1B secretion, 16 h; at 57.5 µM, hits give low values
# Method in brief: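 Secreted IL-1B measured by AlphaLISA bead assay after 16 h compound exposure of THP-1 cells; compounds (final up to 57.5 uM) added 1 h before LPS (250 ng/mL) and ATP (1.25 mM) stimulation; lower signal means less secretion.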
# On the % scale 0 is the no-effect control and ±100 the full control effect.
row,Compound,activity change
1,COc1cccc(/C=N/Nc2snc(SC)c2C#N)c1O,inconclusive: -30.8%
2,CC(C)(C)c1ccc(/C=C(\c2nc3ccccc3[nH]2)S(=O)(=O)c2ccccc2)cc1,active: -95.5%
3,CC(C)(C)NC(=O)C(c1ccc(Cl)cc1)N(Cc1ccco1)C(=O)CCl (stereo not given),inconclusive: -34.7%
4,Cc1ccc2nc(SCC(=O)Nc3nonc3N)[nH]c2c1,inconclusive: -31.9%
5,COc1ccc(CNC(=O)C2CCCN(Cc3nc(-c4cccc(C)c4)oc3C)C2)cc1 (stereo not given),inconclusive: -34.4%
6,O=C(CN(Cc1ccccc1)S(=O)(=O)c1ccc(F)cc1)NCCC1=CCCCC1,inconclusive: -44.3%
7,Cc1cc(C)n(CC(=O)Nc2ccc3c(c2)OCO3)c(=O)c1C#N,inactive: 10.3%
8,Cc1nc(NC(=O)c2ccccc2)sc1-c1csc(Nc2ccc(C(=O)O)cc2)n1,inconclusive: -32.8%
9,Cc1cccc(OCCNc2cc(N3CCN(C)CC3)ccc2[N+](=O)[O-])c1,inconclusive: -36.2%
10,COc1ccccc1-c1noc(-c2cc(OC)c(OC)c(OC)c2)n1,inactive: -22.2%
11,O=C(NC1CCCCC1)N1CCN(Cc2ccco2)CC1,inactive: 15.7%
12,O=[N+]([O-])c1cccc(-c2ccc(SCc3ccccn3)nn2)c1,inconclusive: -35.7%
13,CN(C(=O)COC(=O)c1n[nH]c2ccccc12)c1ccccc1,inconclusive: -42.9%
14,C[C@@H]1CN([C@H](C)CO)S(=O)(=O)c2ccc(-c3cccc(C#N)c3)cc2O[C@H]1CN(C)C(=O)Nc1cc(F)ccc1F,inconclusive: -30.3%
15,COCCNC(=O)C(c1ccc(F)cc1)N(C(=O)CCC(=O)Nc1ccccn1)c1cccc(C)c1 (stereo not given),inactive: -5.12%
16,O=C(N/N=C1\CCS(=O)(=O)c2ccc(F)cc21)c1ccc([N+](=O)[O-])cc1,inactive: 9.57%
17,Nn1c(SCC(=O)Nc2ccc3c(c2)OCCO3)nncc1=O,inconclusive: -32.1%
18,Cc1nn(C(C)(C)C)c(OC(=O)CC(C)C)c1S(=O)(=O)c1ccccc1,inconclusive: -39.9%
19,CC(/C=N/n1c(C2CCCCC2)n[nH]c1=S)=C\c1ccccc1,inconclusive: -34.8%
20,CC(C)C[C@H](NC(=O)c1[nH]cnc1C(=O)Nc1ccc(Cl)cc1)C(=O)OC(C)(C)C,inconclusive: -30.3%
21,CNc1ccc(Br)cc(C(=O)/C=C/c2cccc(OC)c2)c1=O,active: -101%
22,NC(=O)c1ccccc1OCc1cccc2ccccc12,inconclusive: -46.2%

row,Compound,activity change
1,COc1ccc(C(C)NCCC(c2ccc(OC(C)C)cc2)c2ccccc2OC)cc1 (stereo not given),active: -98.5%
2,CCOC(=O)c1c(C)[nH]c(C)c1C(=O)COC(=O)/C=C/c1ccc(OC(F)F)cc1,active: -54.2%
3,COc1ccc(NC2=C3CCCC=C3N(c3ccc(OC)cc3)C2=O)cc1,inconclusive: -36.4%
4,OCCNCc1cc(Br)ccc1OCc1ccc(Cl)cc1,inconclusive: -37.3%
5,CCCCCCCCN1C(=O)[C@H](CC(=O)N2CCN(C(=O)C3CC3)CC2)C[C@@]2(C(=O)OCC)CCCC=C12,active: -65.8%
6,O=C1CCN(Cc2ccccc2)C=C1c1ccc(Br)cc1,inconclusive: -33%
7,CCc1ccccc1N(CC(=O)NC(C)C)C(=O)CCC(=O)Nc1nccs1,inconclusive: -35%
8,CCOC(=O)c1cc2c(=Cc3ccc(N(C)C)cc3)c3ccccc3n2[n+]1C,active: -101%
9,Cc1ccc2c(c1)C1C[N+](C)(CC(=O)Nc3ccccc3Cl)CCC1N2C(=O)c1ccccc1Cl (stereo not given),inconclusive: -47.3%
10,Cc1ccc2[nH]c(O)c(N=NC(N)=S)c2c1,inconclusive: -30.2%
11,C[C@@]12C(=O)Nc3ccc(F)cc3C(=O)N1[C@H]1c3ccccc3OC[C@@H]1[C@@H]2c1ccccc1,inconclusive: -30.6%
12,CC(C)CCNCC(O)CON=C1c2ccccc2-c2ccccc21 (stereo not given),inconclusive: -44.1%
13,COc1cccc(-c2nn(-c3ccccc3)cc2C(=O)Nc2nccs2)c1,inconclusive: -38.9%
14,Cc1cc(C)nc(NC(=O)/C=C/c2ccc3c(c2)OCO3)c1,inactive: -11.5%
15,Fc1ccc(-c2csc(NC3=NCCC3)n2)cc1,inconclusive: -33.3%
16,CC1(C)C(=O)OC(C(=O)c2ccc(C(C)(C)C)cc2)C(C)(C)C1=O (stereo not given),inactive: 18.8%
17,CC(=O)c1ccc(NC(=O)/C(Cl)=C/c2ccccc2)cc1,active: -62.5%
18,CCCCn1c(N)c(N(Cc2ccccc2OC)C(=O)CSCC(=O)Nc2cccc(C)c2)c(=O)[nH]c1=O,inactive: 13.8%
19,CCOC(=O)c1cnc2ccc(C)cc2c1NCCN1CCOCC1,inconclusive: -49%
20,COc1ccc(CNc2oc(COc3ccccc3Cl)nc2C#N)cc1,inconclusive: -38.6%
21,O=C(CN1C(=O)CCSc2ccc(S(=O)(=O)N3CCOCC3)cc21)Nc1cccc(F)c1,inconclusive: -35.4%
22,CC(=O)c1c(C)[nH]c(C(=O)N2CC(C)CC(C)C2)c1C (stereo not given),inactive: 14.4%

row,Compound,activity change
1,CCOc1ccc(NS(=O)(=O)c2ccc(OCC)c3ncccc23)cc1,inactive: 29.4%
2,COc1cccc(C(=O)C2CCCN(Cc3cccn3-c3cccnc3)C2)c1 (stereo not given),inconclusive: -34.8%
3,Cc1cccc(N2CCN(CC(O)COc3ccc(Cl)cc3)CC2)c1 (stereo not given),inconclusive: -39.4%
4,CCOc1ccc(-c2c(C(=O)N/N=C/c3ccco3)nnn2-c2nonc2N)cc1,inactive: 9.82%
5,CCC(=O)Nc1c(S(=O)(=O)c2ccccc2)c2nc3ccccc3nc2n1C(C)c1ccccc1 (stereo not given),inconclusive: -36.9%
6,O=C(Nc1cccnc1)c1c(F)c(F)c(F)c(F)c1F,inactive: -18.4%
7,CCOC(=O)/C(C#N)=C/C=C1\C=Cc2ccccc2N1CC,inconclusive: -42.9%
8,CS/C(=C\[N+](=O)[O-])Nc1ccc(C)cc1,active: -131%
9,COc1ccc2[nH]c(=O)c(CN(CC3CCCO3)C(=O)Nc3ccccc3)cc2c1 (stereo not given),inconclusive: -32%
10,O=C(OC1C2C=CC1C1C(=O)NC21)c1ccccc1 (stereo not given),inactive: -10.2%
11,CCN(Cc1ccncc1)C(=O)c1cc(COc2c(C)cccc2C)on1,inconclusive: -44.1%
12,COc1cc(CNCCN2CCOCC2)ccc1OCc1ccc(Cl)cc1Cl,inconclusive: -35.2%
13,COCCNC(=S)N1CCc2cc(OC)c(OC)cc2C1COc1ccc(C(C)C)cc1 (stereo not given),inconclusive: -43.7%
14,COc1ccc(C)cc1NC(=O)CSc1nnc2ccc(-c3cccnc3)nn12,inactive: -13%
15,O=C(c1cnn(C(=O)CN2CCCC2=O)c1)c1ccccc1O,inactive: -1.71%
16,CCOC(=O)C1=C(C)N(CCCC(=O)O)C(=O)NC1c1ccccc1Cl (stereo not given),inactive: 9.75%
17,O=C(c1cccs1)N1CCc2ccccc2C1,inconclusive: -41.5%
18,CCCCCNC(=O)C(C1CC1)n1c(=O)c(-c2cc3ccccc3[nH]2)nc2ccccc21 (stereo not given),inactive: -2.95%
19,CC1=CC(C)(C)Nc2ccc(OC(=O)CN3C(=O)C4CCCCC4C3=O)cc21 (stereo not given),active: -97.6%
20,O=C(Nc1cccc(Cl)c1)N(CCN1CCOCC1)Cc1ccccc1F,inconclusive: -33.4%
21,C[C@H]1CN([C@@H](C)CO)C(=O)c2cccc(NS(=O)(=O)c3ccc(F)cc3)c2O[C@H]1CN(C)Cc1ccc(Cl)c(Cl)c1,inconclusive: -32%
22,COc1ccc(/C=N/Nc2nonc2N)cc1OC,inconclusive: -34.4%

row,Compound,activity change
1,CCN(CCCNC(=O)CN(C)S(=O)(=O)c1cccc2nsnc12)c1cccc(C)c1,inconclusive: -34.6%
2,CCOc1ccc(NC(=O)CN2C(=O)CSc3ccc(S(=O)(=O)N4CCCC4)cc32)cc1,inconclusive: -45.7%
3,Oc1oc(-c2ccccc2)nc1C=Nc1ccccc1,active: -54.8%
4,N#Cc1c(-c2ccc(Cl)cc2)n(O)c2ccccc12,active: -54.3%
5,Nc1c(-c2cccc([N+](=O)[O-])c2)nc2ccccn12,inactive: 2.08%
6,CC(C)c1ccc(C(=O)NCCCN(C)C)cc1,inactive: 0%
7,CCn1cc(C(=O)O)c(=O)c2cnc(N3CCN(C(=S)NC(=O)c4ccc(Br)cc4)CC3)nc21,inconclusive: -37.2%
8,CCOC(=O)c1ccc(NC(=O)CSc2nc(=O)n3cccc(C)c3n2)cc1,inconclusive: -35%
9,COc1ccc2cc(CN(CC3CCCO3)C(=S)Nc3ccccc3)c(=O)[nH]c2c1 (stereo not given),inconclusive: -41.6%
10,CCN1CCN(c2ccc(NC(=O)c3ccc(C#N)cc3F)cc2Cl)CC1,inactive: -9.92%
11,Nc1ccc(S(=O)(=O)Nc2nccc(/C=C/c3ccc([N+](=O)[O-])cc3)n2)cc1,inconclusive: -32.3%
12,Cc1onc(C(=O)N2CCN(C(c3ccccc3)c3ccccc3)CC2)c1[N+](=O)[O-],active: -98.7%
13,CC(C)(C)OC(=O)NCCCCCNC(=O)c1nc[nH]c1C(=O)NCc1ccc(CNC(=O)OC(C)(C)C)cc1,inconclusive: -43.5%
14,COc1ccc(CN(CCNC(=O)CCCCC(=O)NCCN(Cc2ccc(OC)cc2)C(C)C)C(C)C)cc1,inconclusive: -31.7%
15,Cc1ccc(S(=O)(=O)NN(Cc2ccccc2)Cc2ccccc2)cc1,inconclusive: -33%
16,CCCCCCSc1ccc([C@H]2N[C@@](C)(C(=O)OC)[C@H]3C(=O)N(C)C(=O)[C@@H]23)cc1,inconclusive: -39.8%
17,COCCn1nnnc1C(c1ccccc1)N1CCN(c2ccccc2)CC1 (stereo not given),inconclusive: -35%
18,C=CCn1c(SCC(=O)c2ccc(Cl)cc2)nnc1-c1ccc2c(c1)OCO2,inconclusive: -33.8%
19,CCOC(=O)CNCCC(=O)c1ccc(Br)cc1,inconclusive: -37.3%
